In patent US10689381B2 (priority 2017, dated 2020):
Some results were stated once for a whole list of compounds, not compound by compound. For part of these data: At least one structure is not confirmed: it was looked up by name or label, or the drawing left a doubt. Some ranges recur; such a range may be that of the whole group of compounds.

Tested on: not given
Type: cell-based, human
Conditions: range over L1210 and HCT116, stated in text; read-out: IC50 against vinblastine-sensitive cell lines
Experimental: (§1) A population of cells (>1×10^6 cells/mL as determined with a hemocytometer) was diluted with Dulbecco's Modified Eagle Medium (DMEM, Gibco) containing 10% fetal bovine serum (FBS, Gibco) to give a final concentration of 30,000 cells/mL. To each well of a 96-well plate (Corning® Costar®) was added 100 μL of the cell media solution with a multichannel pipet.
(§2) The test compounds were then added to the plate as follows: test compounds were diluted in DMSO to a concentration of 1 mM. 10-Fold serial dilutions in DMSO were next performed on a separate 96-well plate. Fresh culture media (100 μL) was added to each well of cells resulting in 200 μL of medium per well followed by 2 μL of each test agent. Compounds were tested in duplicate (n=2-8 times) at six concentrations between 0-1000 nM or 0-10000 nM. Following the addition of compound, cultures were incubated for an additional 72 hours.
(§3) The plates were incubated at 37° C. for 5 minutes (L1210) or 15 min (HCT116 and HCT116/VM46).

SMILES | IC50 [nM]
CCC1(NC(=O)c2cccs2)CC2CN(CCc3c([nH]c4ccccc34)C(C(=O)OC)(c3cc4c(cc3OC)N(C)C3C(O)(C(=O)OC)C(OC(C)=O)C5(CC)C=CCN6CCC43C65)C2)C1 (stereo not drawn) [Compound 136] | 0.6 to 0.7
CCC1(NC(=O)c2ccncc2)CC2CN(CCc3c([nH]c4ccccc34)C(C(=O)OC)(c3cc4c(cc3OC)N(C)C3C(O)(C(=O)OC)C(OC(C)=O)C5(CC)C=CCN6CCC43C65)C2)C1 (stereo not drawn) [Compound 128] | 0.4 to 0.7
CCC1(NC(=O)c2ccc3ccoc3c2)CC2CN(CCc3c([nH]c4ccccc34)C(C(=O)OC)(c3cc4c(cc3OC)N(C)C3C(O)(C(=O)OC)C(OC(C)=O)C5(CC)C=CCN6CCC43C65)C2)C1 (stereo not drawn) [Compound 157] | 2 to 3
CC[C@]1(NC(=O)c2ccoc2)C[C@H]2CN(CCc3c([nH]c4ccccc34)[C@@](C(=O)OC)(c3cc4c(cc3OC)N(C)[C@H]3[C@@](O)(C(=O)OC)[C@H](OC(C)=O)[C@]5(CC)C=CCN6CC[C@]43[C@@H]65)C2)C1 [Compound 133] | 0.6 to 0.7
CCC1(NC(=O)c2cccnc2)CC2CN(CCc3c([nH]c4ccccc34)C(C(=O)OC)(c3cc4c(cc3OC)N(C)C3C(O)(C(=O)OC)C(OC(C)=O)C5(CC)C=CCN6CCC43C65)C2)C1 (stereo not drawn) [Compound 129] | 0.4 to 0.7
CC[C@]1(NC(=O)c2ccc3ccsc3c2)C[C@H]2CN(CCc3c([nH]c4ccccc34)[C@@](C(=O)OC)(c3cc4c(cc3OC)N(C)[C@H]3[C@@](O)(C(=O)OC)[C@H](OC(C)=O)[C@]5(CC)C=CCN6CC[C@]43[C@@H]65)C2)C1 [Compound 162] | 2 to 3

Tested on: HCT116
Type: cell-based, human
Conditions: 179 vs 24, 180 vs 25, 181 vs 67, 185 vs 116
Experimental: as §1, §2, §3

SMILES | activity of sulfonamide relative to corresponding C20′ amide (less active)
CCC1(NS(=O)(=O)c2ccc(C)cc2)CC2CN(CCc3c([nH]c4ccccc34)C(C(=O)OC)(c3cc4c(cc3OC)N(C)C3C(O)(C(=O)OC)C(OC(C)=O)C5(CC)C=CCN6CCC43C65)C2)C1 (stereo not drawn) [Compound 180] | 50-100 times
CC[C@]1(NS(=O)(=O)c2ccc3ccccc3c2)C[C@H]2CN(CCc3c([nH]c4ccccc34)[C@@](C(=O)OC)(c3cc4c(cc3OC)N(C)[C@H]3[C@@](O)(C(=O)OC)[C@H](OC(C)=O)[C@]5(CC)C=CCN6CC[C@]43[C@@H]65)C2)C1 [Compound 185] | 50-100 times
CCC1(NS(=O)(=O)c2ccc(OC)cc2)CC2CN(CCc3c([nH]c4ccccc34)C(C(=O)OC)(c3cc4c(cc3OC)N(C)C3C(O)(C(=O)OC)C(OC(C)=O)C5(CC)C=CCN6CCC43C65)C2)C1 (stereo not drawn) [Compound 181] | 50-100 times
CCC1(NS(=O)(=O)c2ccccc2)CC2CN(CCc3c([nH]c4ccccc34)C(C(=O)OC)(c3cc4c(cc3OC)N(C)C3C(O)(C(=O)OC)C(OC(C)=O)C5(CC)C=CCN6CCC43C65)C2)C1 (stereo not drawn) [Compound 179] | 50-100 times

Same assay, conditions: vinblastine-sensitive cell lines

SMILES | potency relative to vinblastine (more potent)
CCC1(NC(=O)c2ccc3ccoc3c2)CC2CN(CCc3c([nH]c4ccccc34)C(C(=O)OC)(c3cc4c(cc3OC)N(C)C3C(O)(C(=O)OC)C(OC(C)=O)C5(CC)C=CCN6CCC43C65)C2)C1 (stereo not drawn) [Compound 157] | 2- to 3 fold
CC[C@]1(NC(=O)c2ccc3ccsc3c2)C[C@H]2CN(CCc3c([nH]c4ccccc34)[C@@](C(=O)OC)(c3cc4c(cc3OC)N(C)[C@H]3[C@@](O)(C(=O)OC)[C@H](OC(C)=O)[C@]5(CC)C=CCN6CC[C@]43[C@@H]65)C2)C1 [Compound 162] | 2- to 3 fold

Tested on: A549-T24
Type: cell-based, human
Conditions: not given
From the text: 2001, 98:11737; Kavallaris et al., Brit. J. Cancer. 1999, 80:1020; and Kavallaris et al., J. Clin. Invest. 1997, 100:1282]. As a result, the comparison of cell growth inhibition of candidate drugs against A549 vs A549-T24 has been used to characterize potential resistance due to increased expression of class III β-tubulin [Goncalves et al., Proc. Natl. Acad. Sci. USA. 2001, 98:11737; Kavallaris et al., Brit. J. Cancer. 1999, 80:1020; and Kavallaris et al., J. Clin. Invest. 1997, 100:1282].

SMILES | increase in potency against A549-T24 vs wild type A549
CCC1(NC(=O)c2ccc(NC(=O)OC(C)(C)C)cc2)CC2CN(CCc3c([nH]c4ccccc34)C(C(=O)OC)(c3cc4c(cc3OC)N(C)C3C(O)(C(=O)OC)C(OC(C)=O)C5(CC)C=CCN6CCC43C65)C2)C1 (stereo not drawn) [Compound 60] | 1.2-2 fold
CC[C@]1(NC(=O)c2ccc(NS(C)(=O)=O)cc2)C[C@H]2CN(CCc3c([nH]c4ccccc34)[C@@](C(=O)OC)(c3cc4c(cc3OC)N(C)[C@H]3[C@@](O)(C(=O)OC)[C@H](OC(C)=O)[C@]5(CC)C=CCN6CC[C@]43[C@@H]65)C2)C1 [Compound 61] | 1.2-2 fold
CCC1(NC(=O)c2ccc(NC(C)=O)cc2)CC2CN(CCc3c([nH]c4ccccc34)C(C(=O)OC)(c3cc4c(cc3OC)N(C)C3C(O)(C(=O)OC)C(OC(C)=O)C5(CC)C=CCN6CCC43C65)C2)C1 (stereo not drawn) [Compound 58] | 1.2-2 fold
